# Results reported in PubChem BioAssay AID504466 (National Center for Advancing Translational Sciences (NCATS), 2011).
# Out of some 330,000 compounds screened, about 4,200 (1.3%) were called active. The inconclusive results got no clear call from the source; some entries with a clear call stand among them for comparison. Calls follow the shape of the dose curve; as a rule, active = well fitted activation curve with a large enough effect; inconclusive = small, poorly fitted or top-dose-only effect; inactive = no such curve, though single readings can be large or run the other way. Where the call is inconclusive, the potency comes from a doubtful curve fit.
# Experiment: qHTS screen for small molecules that induce genotoxicity in human embryonic kidney (HEK293T) cells expressing luciferase-tagged ELG1; also: nearly all actives have a fitted effect of over 60% in size; as to activity change, positive = activation: % of control where 0% means no effect
# Conditions: HEK293T ELG1-luciferase reporter, luminescence, 16 h; series mostly up to 46 µM; activity change, positive = activation: at the top concentration
# Method in brief: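 Quantitative HTS format in 1536-well plates. HEK293T ELG1-luciferase reporter cells receive test compound and are incubated 16 hr at 37 °C, 5% CO2; ONE-Glo added, 30 min room temperature, then luminescence read.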
# Potency is read from the fitted curve at half-maximal effect; tags tell the direction and shape of the fitted curve.
SMILES,Potency,"activity change, positive = activation"
Cc1ccc(C2=NCN(c3ccc(C(=O)O)cc3)C(=S)N2)cc1,"inconclusive: 20.6 µM [activator, partial curve, poor fit]",
CCOC(=O)c1sc(NC(=O)Nc2ccccc2)cc1C,"inconclusive: 1.84 µM [activator, partial curve]",
CC(C)N(C(=O)[C@H]1C[C@H](CC(=O)NCC23CC4CC(CC(C4)C2)C3)C(=O)N2CCc3c([nH]c4cc(CCC(=O)N(C)C)ccc34)[C@]12C)C(C)C,,inactive: 0.0467%
CCc1ccc(-n2cccc2/C=C2/C(=N)N3C(=NC2=O)SN=C3S(C)(=O)=O)cc1,,inactive: 0.0359%
C/C(=N\Nc1cccc([N+](=O)[O-])c1)c1cc2ccccc2o1,"inconclusive: 16.4 µM [activator, partial curve, poor fit]",
CC(=O)N(/N=C1\Sc2ccccc2C1=O)c1ccccc1,"inconclusive: 7.31 µM [activator, partial curve, poor fit]",
O=C(NC(=S)NCc1cccnc1)c1cc2ccccc2o1,,inactive: -7.78%
COc1ccc(NC(=O)OC(C)C)cc1,"inconclusive: 9.2 µM [activator, partial curve]",
O=C(NC(=S)NNC(=O)c1cccs1)c1ccccc1,"inconclusive: 25.9 µM [activator, partial curve, poor fit]",
CC[n+]1c(/C=C/c2ccc(OC(C)=O)c(OC)c2)ccc2ccccc21,"inconclusive: 18.3 µM [activator, single point]",
O=C(Cn1c(SCC(=O)N2CCc3ccccc32)nc2ccccc21)NC1CCCC1,,inactive: 6.83%
Cc1ccc(-c2csc(NC(=O)CSc3nc4ccccc4c(=O)n3CCCN(C)C)n2)cc1,"inconclusive: 32.6 µM [activator, partial curve, poor fit]",
Cc1ccc(C(=O)Nc2ccccc2C(=O)NC(C(=O)O)C(C)C)cc1 (centres undefined),"inconclusive: 32.6 µM [activator, partial curve, poor fit]",
COc1ccc2nc(/C(C#N)=C\c3ccc(Oc4ccc([N+](=O)[O-])cn4)cc3)[nH]c2c1,,inactive: 7.23%
CC1CCC(NC(=O)Cn2cnc3sccc3c2=O)CC1 (centres undefined),,inactive: 4.73%
Cc1sc(NC(=O)CS(=O)(=O)c2ccccc2)c(C#N)c1C,"inconclusive: 16.4 µM [activator, single point]",
O=C(OCc1ccc(Br)cc1)c1cnc(Cl)c(Cl)c1,"inconclusive: 25.9 µM [activator, single point]",
Cc1cc(SCC(=O)c2ccc(Cl)cc2)nc(=O)[nH]1,"inconclusive: 2.31 µM [activator, partial curve]",
O=C(Nc1ncccc1O)c1ccc(C(=O)c2ccccc2)cc1,active: 18.3 µM,
O=C(CSc1nnc(-c2ccccc2Cl)o1)Nc1ccc2c(c1)OCCO2,"inconclusive: 23.1 µM [activator, single point]",
O=C(c1ccccc1)c1cnc(Nc2ccccc2Cl)s1,"inconclusive: 3.66 µM [activator, partial curve]",
Cc1noc(C)c1CSCC(=O)Nc1nc(-c2ccc(F)c(F)c2)cs1,,inactive: -4.44%
N#C/C(=C(\O)Cc1ccccc1)c1nc2ccccc2[nH]1,"inconclusive: 23.1 µM [activator, single point]",
Nc1ccccc1S(=O)(=O)NC1=NCCCCC1,,inactive: -1.05%
NC(=O)c1cnn(-c2cc(Oc3ccccc3)ncn2)c1N,"inconclusive: 10.3 µM [activator, partial curve]",

SMILES,Potency,"activity change, positive = activation"
O=C(O)c1ccc(N=NNc2cccc([N+](=O)[O-])c2)cc1,"inconclusive: 7.3 µM [activator, partial curve]",
O=C(CCN1C(=O)S/C(=C/c2ccc(F)cc2)C1=O)Nc1ccc(O)c(C(=O)O)c1,,inactive: -1.06%
CC(=NCc1ccco1)c1c(C(F)(F)F)[nH]n(-c2nc3ccccc3s2)c1=O,active: 2.59 µM,
Cc1ccc(CCNC(=O)C2CCN(S(=O)(=O)c3ccc4c(c3)oc(=O)n4C)CC2)cc1,,inactive: 0.116%
CC(=O)NC(Cc1ccccc1F)C(=O)NC1CCN(S(=O)(=O)c2ccccc2)CC1 (centres undefined),,inactive: 2.74%
CCOC(=O)C1=C(COC(=O)CNC(=O)c2ccc(Cl)cc2Cl)NC(=O)NC1C (centres undefined),,inactive: 3.88%
O=C(CSc1n[nH]c(-c2cccs2)n1)N1CCOCC1,,inactive: 0.916%
Cc1cccnc1Nc1nc(-c2ccc(F)cc2)cs1,active: 13 µM,
O=C1CCc2cc(S(=O)(=O)N3CCN(c4ccccc4)CC3)cc3c2N1CCC3,"inconclusive: 18.3 µM [activator, partial curve, poor fit]",
Nc1nc(-c2ccc3c(c2)CCCC3)cs1,"inconclusive: 5.17 µM [activator, partial curve]",
OCC1(CCOc2ccccc2)CCN(Cc2ccc(OC(F)F)cc2)CC1,,inactive: 9.03%
COc1cccc(NC(=O)CSC(N)=O)c1,,inactive: -11.6%
O=C(c1ccc(Br)s1)N1CCN(c2ccccn2)CC1,,inactive: -1.83%
Nc1nc2ccc(Cc3ccncc3)cc2s1,"inconclusive: 5.8 µM [activator, full curve]",
CC(C)(C)c1ccc(C(=O)CC(=O)c2cc(Cl)ccc2O)cc1,"inconclusive: 35.5 µM [activator, single point]",
Cc1cccc(-c2cc3nc4c(c(N5CCOCC5)n3n2)CCCC4)c1,"inconclusive: 3.16 µM [activator, partial curve, poor fit]",
O=C(c1ccccc1)n1c(=S)nc2ccccn21,active: 0.326 µM,
CCSC1(SCC)N=C(N)C2(C#N)C(c3ccc(F)cc3)C12C#N (centres undefined),"inconclusive: 29.1 µM [activator, partial curve, poor fit]",
O=C(Oc1ccc(/C=N/NC(=O)c2ccccn2)cc1)c1cccc(Br)c1,active: 16.4 µM,
CCCOc1ccc(-c2cnc(N)s2)cc1,"inconclusive: 11.6 µM [activator, partial curve, poor fit]",
CCN(CC)c1ccc(/C=C(\C#N)C(N)=O)cc1,"inconclusive: 16.4 µM [activator, single point]",
O=C(c1cc2nc(-c3ccc(F)cc3)cc(C(F)(F)F)n2n1)N1CCCCC1c1cccnc1 (centres undefined),,inactive: -6.24%
CCc1nnc(NC(=O)C2COc3ccccc3O2)s1 (centres undefined),"inconclusive: 3.55 µM [activator, partial curve, poor fit]",
CCOc1ccc(NC(=O)c2ccc(N)cc2)cc1,"inconclusive: 18.4 µM [activator, partial curve]",
CCCN(CC(=O)Nc1ccccc1C)C(=O)c1ccc(OCc2c(C)noc2C)cc1,,inactive: 0.519%

SMILES,Potency,"activity change, positive = activation"
CN(CC(=O)Nc1ccc(F)cc1)C(=O)COC(=O)c1cccc(N(C)C)c1,"inconclusive: 5.8 µM [activator, partial curve]",
CCOC(=O)NC(NC(=S)Nc1ccc(OCC)cc1)C(Cl)(Cl)Cl (centres undefined),"inconclusive: 32.6 µM [activator, partial curve, poor fit]",
CC(C)Nc1nc(NC(C)C)nc(Oc2ccc(=O)n(C)n2)n1,"inconclusive: 18.3 µM [activator, single point]",
CC1CCN(c2c(NCC3CCC(C(=O)NCc4ccccc4)CC3)c(=O)c2=O)CC1 (centres undefined),,inactive: -0.656%
CCN(c1ccc(OC)cc1)S(=O)(=O)c1csc(C(=O)N2CCCC2)c1,,inactive: -1.38% [at 9.26 µM]
O=C(CNC(=O)c1ccccc1F)OCCOc1cccc(Cl)c1,,inactive: 1.49%
CCn1c(=O)cc(OCC(=O)NCCc2cccc(C)c2)c2ccccc21,"inconclusive: 20.6 µM [activator, single point]",
O=C(Nc1ccc(-c2cn3ccsc3n2)cc1)C1CC1,"inconclusive: 4.11 µM [activator, full curve, poor fit]",
Cc1ccc(-n2c(C)c(C)c3c(NCCO)ncnc32)cc1,"inconclusive: 20.6 µM [activator, partial curve, poor fit]",
CC(=O)N(C)C1=C(O)c2ccccc2C(=O)C1=O,,inactive: 1.98%
O=C(Cn1cnc2ccccc2c1=O)Nc1ccc2c(c1)OCO2,"inconclusive: 23.1 µM [activator, partial curve, poor fit]",
Cc1cccc(C(=O)Nc2ccc(C(=O)/C=C/c3cccnc3)cc2)c1,"inconclusive: 14.6 µM [activator, partial curve, poor fit]",
O=C1CC(c2ccc(F)cc2)CC2=C1C=Nc1ccccc1N2 (centres undefined),,inactive: -9.06%
Fc1ccc(OCc2cc(-c3ccccc3)no2)cc1,active: 20.6 µM,
CCOC(=O)N1CCN(C(=O)c2cc(COc3ccc(F)cc3F)on2)CC1,"inconclusive: 23.1 µM [activator, single point]",
C/C(=N\NC(=O)c1ccccc1)c1ccc2c(c1)OCO2,active: 18.4 µM,
Cc1ccc(CN2C(=O)CCC2C(=O)NC2CC2)cc1 (centres undefined),,inactive: -1.89%
Cc1nc2cc(NCc3ccc(Cl)cc3)ccc2n1C,active: 2.59 µM,
N=c1oc2ccccc2cc1C(=O)Nc1ccccc1,active: 0.82 µM,
Cc1cc2ncn(S(=O)(=O)N3CCCCC3)c2cc1C,"inconclusive: 23.1 µM [activator, single point]",
CC(=O)Nc1ccc(C(=O)OCCc2ccccc2)cc1,"inconclusive: 25.9 µM [activator, partial curve, poor fit]",
Cn1c(O)c(N=Nc2ccccc2[N+](=O)[O-])c2ccccc21,"inconclusive: 20.6 µM [activator, partial curve, poor fit]",
CCCCC(=O)NC(c1ccc(N(C)C)cc1)c1ccc2cccnc2c1O (centres undefined),"inconclusive: 7.3 µM [activator, partial curve, poor fit]",
O=C(O)COc1ccc2c(-c3ccccc3)cc(=O)oc2c1,,inactive: 10.2%
